Switch fluorescence ratio data for 78 sequences are collected here from the supplement of paper PMC10126150.

Values marked as one replicate rest on one cluster of the flow cell; about a third of the high ones do not repeat.

The series relates to ATP. Briefly: switch fluorescence ratio, 500 uM ATP over buffer (Cy3 cluster intensity, sum of 5 cycles each) (fold (ratio)); higher = stronger signal-on switching upon ATP binding; sequences stand for … in TCGTCGGCAGCGTCAGATGTGTATAAGAGACAGTTTTTTTTTTTTTTTTTTTTTTTTT…TC. As to conditions: aptamer strand: ATP DNA aptamer (quencher-CACCTGGGGGAGTATTGCGGAGGAAGG + anchor), 100 nM annealed; ATP concentration: 500 uM; one replicate. The essentials:
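Exposure to 500 uM ATP lasted 15 min at 22 °C before imaging, and a selection-buffer image was taken beforehand, for Cy3-labelled switching-strand clusters on a modified Illumina MiSeq flow-cell annealed to 100 nM quencher-labelled ATP aptamer. Five buffer/ATP cycles were run with NaOH stripping and re-annealing between them. The fluorescence ratio per cluster is summed target-cycle over summed buffer-cycle Cy3 intensity, averaged per switch-domain sequence. Clusters outside 100-1000 RFU were excluded.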
In the case of AGTACCAGGG, the switch fluorescence ratio is 1.15.
Then AAAGGGTGGA, with 0.992; and TACCCGGAGC, with 1.54; and GCTGCACTTT, with 1.
The figure for TTATCAGCTG is 1.01.
For TCCCCCCGGC, the switch fluorescence ratio worked out at 1.46.
The figure for AGAAGTGACC is 1.1.
Consider GATAACTACG, for which the switch fluorescence ratio amounted to 1.07.
Then AAACTGTATG, with 0.994; and TTTGGTGATG, with 1.01; and CGCTCATGGA, with 1.03.
Then TCCATTGTCA, with 1; and ACGTAGTCTT, with 1.02.
For ATGCATGATC, the switch fluorescence ratio came out at 1.03.
The figure for CCGGGCGTAA is 5.75; for CATTTATCCC it is 0.968; for CGTCAATCGT it is 1.06.
GGAAAACCGA: the switch fluorescence ratio stood at 1.09.
CGAAGTTCGA: the switch fluorescence ratio was 1.05.
The figure for TATATATTCG is 1.01; for TCGAGGCAAG it is 3.76; for GGTAGTCTAT it is 0.967.
For CTGGCGTGTC, the switch fluorescence ratio came to 1.01.
In the case of ATGATTCTGG, the switch fluorescence ratio was found to be 1.06.
For the sequence GCAAGTTATG, the switch fluorescence ratio came to 1.03.
With CCCTCAAAGT, the switch fluorescence ratio stood at 3.
For the sequence CTGGAGTGTG, the switch fluorescence ratio came out at 0.966.
The figure for CGGGTCTATC is 0.987; for AATGACGTCA it is 0.98; for AACGCCATTG it is 1.09.
The figure for ACCGTCTGAC is 1.13.
Then ACGGTGTGCC, with 1.01; and ACGTTGAGGC, with 1.12; and TTGGCTTACA, with 1.03.
Consider GCGATTTTCA, for which the switch fluorescence ratio worked out at 1.
Then TGACAGAAAG, with 1.02.
Regarding AGAAGAGAAG, the switch fluorescence ratio worked out at 1.14.
Then TTCACAAATC, with 1.06; and ATTGCGTGTT, with 0.982.
Then TTGAGACACT, with 1.
The figure for CCAGATTGAA is 0.952; for TTATTTTGTC it is 1.01.
Turning to TGTGACGATA, the switch fluorescence ratio is 1.05.
With AATGCTGAAA, the switch fluorescence ratio was found to be 0.942.
Take TATGACGACC: the switch fluorescence ratio turned out to be 1.16.
The figure for CGAAACAACT is 0.99; for GCTGATCGGT it is 0.969.
For TGAAGAAGGG, the switch fluorescence ratio worked out at 0.999.
The figure for CATGTAGAGT is 1.05; for AGTGTTAAAT it is 0.981.
The figure for CAACATGCAT is 1.23; for GCAATTAGGC it is 1.14.
As for TTCACAGTCT, the switch fluorescence ratio worked out at 1.21.
Then TTTGTCAATT, with 0.956.
Then CCCCGCGGAT, with 3.84; and TTATCAGGCA, with 1.02; and TTAGGTGA, with 1.05.
As to TTAGTCCATA, the switch fluorescence ratio came out at 0.992.
The figure for TATATCCAGG is 1.26; for CCTTCTACCT it is 1.23.
Then TATCTTCGGC, with 1; and ACGAGTTCCG, with 1.09; and TCCGAATTGT, with 0.993.
In the case of GTAGGGGTTA, the switch fluorescence ratio came out at 0.987.
Take GTATGTAATG: the switch fluorescence ratio is 0.96.
The figure for CTGGAGAAAT is 3.66; for TGATAGGGGG it is 1.02.
Consider TTAGAAGTG, for which the switch fluorescence ratio turned out to be 0.947.
As to CCCTATTGAG, the switch fluorescence ratio turned out to be 0.998.
Then TTACCGGGCG, with 1.01; and TCTGGCTTTA, with 1.01; and TCAATCCTCC, with 1.46.
Consider TACTCGCGGG, for which the switch fluorescence ratio came out at 0.972.
Then CTGGTTAGCG, with 0.969.
Regarding TAAGCCCGGC, the switch fluorescence ratio turned out to be 0.904.
Then TCTCGGGGCA, with 1.05; and GACCGCCTTC, with 1.06.
For the sequence AGGTTCAGCT, the switch fluorescence ratio was 1.03.
